Results taken from the supplement of paper PMC12217912.
This is one part of the list. Sequences were assembled here from the parent chain. Values near 0.05 are background.

B1: TEV protease; numbered along this chain (parent)
chain: MGESLFKGPRDYNPISSSICHLTNESDGHTTSLYGIGFGPFIITNKHLFRRNNGTLVVQSLHGVFKVKDTTTLQQHLVDGRDMIIIRMPKDFPPFPQKLKFREPQREERICLVTTNFQTKSMSSMVSDTSCTFPSGDGIFWKHWIQTKDGQCGSPLVSTRDGFIVGIHSASNFTNTNNYFTSVPKNFMELLTNQEAQQWVSGWRLNADSVLWGGHKVFMVKPEEPFQPVKEATQL

Variants of: B1
Assay: raw area under fraction-flipped curve 0-4 h after induction (AUC4h, not background-subtracted), DNA-recorder readout of cleavage of the substrate (dimensionless); higher = more cleavage of the substrate by the protease variant
Conditions: temperature: 34 °C; time window: 0-4 h after rhamnose induction
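Also: Bxb1 expression induced with 0.2% (w/v) L-rhamnose at OD600 near 0.5, cultures sampled hourly, flipped fraction per protease–substrate barcode pair counted by paired-end Illumina sequencing.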

Variant	area with substrate ENDYFQS	area with substrate ENFYFQS	area with substrate ENGYFQS	area with substrate ENNYFQS	area with substrate ENVYFQS	area with substrate ENPYFQS	area with substrate ENRYFQS	area with substrate ENSYFQS	area with substrate ENYYFQS	area with substrate ENIYFQS
MGESLFKGPRDYNPISSSICHLTNESDGHTTSLYGIGFGPFIITNKHLFRRNNGTLVVQSLHGVFKVKDTTTLQQHLVDGRDMIIIRMPKDFPPFPQKLKFREPQREERICLVTTNFQTKSMSSMVSDTSCTFPSGDGIFWKHWIQTKDGQCGSPLVSTRDGFIVGIHSASNFTNTNNYFTSVPKNFMELLTNQEAQQWVSGWRLNADSVIWGGHKVFMVKPEEPFQPVKEATQL [L211I]	0.0691	0.0336	0.0825	0.0516	0.0741					
MGESLFKGPRDYNPISSSICHLTNESDGHTTSLYGIGFGPFIITNKHLFRRNNGTLVVQSLHGVFKVKDTTTLQQHLVDGRDMIIIRMPKDFPPFPQKLKFREPQREERICLVTTNFQTKSMSSMVSDTSCTFPSGDGIFWKHWIQTKDGQCGSPLVSTRDGFIVGIHSASNFTNTNNYFTSVPKNFMELLTNIEAQQWVSGWRLNADSVLWGGHKVFMVKPEEPFQPVKEATQL [Q194I]	0.0651	0.0673	0.0462	0.0573		0.0481	0.07	0.0479	0.0596	
MGESLFKGPRDYNPISSSICHLTNESDGHTTSLYGIGFGPFIITNKHLFRRNNGTLVVQSLHGVFKVKDTTTLQQHLVDGRDMIIIRMPKDFPPFPQKLKFREPQREERICLVTTNFQTKSMSSMVSDTSCTFPSGDGIFWKHWIQTKDGQCGSPLVSTRDGFIVGIHSASNFTNTNNYFTSVPKNFMELLTKQEAQQWVSGWRLNADSVLWGGHKVFMVKPEEPFQPVKEATQL [N193K]	0.0456	0.0455	0.0445							0.156
MGESLFKGPRDYNPISSSICHLTNESDGHTTSLYGIGFGPFIITNKHLFRRNNGTLVVQSLHGVFKVKDTTTLQQHLVDGRDMIIIRMPKDFPPFPQKLKFREPQREERICLVTTNFQTKSMSSMVSDTSCTFPSGDGIFWKHWIQTKDGQCGSPLVSTRDGFIVGIHSASNFTNTNNDFTSVPKNFMELLTNQEAQQWVSGWRLNADSVLWGGHKVFMVKPEEPFQPVKEATQL [Y179D]	0.077	0.0619			0.0526			0.0515		
MGESLAKGPRDYNPISSSICHLTNESDGHTTSLYGIGFGPFIITNKHLFRRNNGTLVVQSLHGVFKVKDTTTLQQHLVDGRDMIIIRMPKDFPPFPQKLKFREPQREERICLVTTNFQTKSMSSMVSDTSCTFPSGDGIFWKHWIQTKDGQCGSPLVSTRDGFIVGIHSASNFTNTNNYFTSVPKNFMELLTNQEAQQWVSGWRLNADSVLWGGHKVFMVKPEEPFQPVKEATQL [F6A]			0.0633	0.07	0.0684	0.0567				
MGESLFKGPRDYNPISSSICHLTNESDGHTTSLYGIGFGPFIITNKHLFRRNNGTLVVQSLHGVFKVKDTTTLQQHLVDGRDMIIIRMPKDFPPFPQKLKFREPQREERICLVTTNFQTKSMSSMVSDTSCTFPSGDGIFWKHWIQTKDGQCGSPLVSTRDGFIVGIHSASNFTNTNNYFTSVPKNFMELLTNQEAQQWVSGWRLNADSVLWGFHKVFMVKPEEPFQPVKEATQL [G214F]	0.0564									
MGESLFKGPRDYNPISSSICHLTNESDGHTTSLYGIGFGPFIITNKHLFRRNNGTLVVQSLHGVFKVKDTTTLQQHLVDGRDMIIIRMPKDFPPFPQKLKFREPQREERICLVTTNFQTKSMSSMVSDTSCTFPSGDGIFWKHWIQTKDGQCGSPLVSTRDGFIVGIHSASNFTNTNNYFTSVPKTFMELLTNQEAQQWVSGWRLNADSVLWGGHKVFMVKPEEPFQPVKEATQL [N186T]	0.0523	0.0603			0.0744	0.0551	0.0822		0.0399	
MGESLFKGPRDYNPISSSICHLTNESDGHTTSLYGIGFGPFIITNKHLFRRNNGTLVVQSLHGVFKVKDTTTLQQHLVDGRDMIIIRMPKDFPPFPQKLKFREPQREERICLVTTNFQTKSMSSMVSDTSCTFPSGDGIFWKHWIQTKDGQCGSPLVSTRDGFIVGIHSASNFTNTNNYFTSVPKNFMELLTNQEAQQWVSGWRLNADSVLWGGHKEFMVKPEEPFQPVKEATQL [V217E]	0.0648	0.0514		0.0704	0.0619		0.0913			
MGESLFKGPRDYNPISSSICHLTNESDGHTTSLYGIGFGPFIITNKHLFRRNNGTLVVQSLHGVFKVKDTTTLQQHLVDGRDMIIIRMPKDFPPFPQKLKFREPQREERICLVTTNFQTKSMSSMVSDTSCTFPSGDGIFWKHWIQTKDGQCGSPLVSTRDGFIVGIHSASNFTNTNNYFTSVPKNFMELLTNQEAQQWVSGWRLNADSVLAGGHKVFMVKPEEPFQPVKEATQL [W212A]	0.0496		0.0802			0.0497				
MGESLFKGPRDYNPISSSICHLTNESDGHTTSLYGIGFGPFIITNKHLFRRNNGTLVVQSLHGVFKVKDTTTLQQHLVDGRDMIIIRMPKDFPPFPQKLKFREPQREERICLVTTNFQTKSMSSMVSDTSCTFPSGDGIFWKHWIQTKDGQCGSPLVSTRDGFIVGIHSASNFTNTNNYFTSVPKNFMELLTNQEAQPWVSGWRLNADSVLWGGHKVFMVKPEEPFQPVKEATQL [Q198P]	0.0565	0.0425		0.0714			0.0556			

Same assay, conditions: temperature: 34 °C; time window: 0-4 h after rhamnose induction

Variant	area with substrate ENQYFQS	area with substrate ENMYFQS	area with substrate ENEYFQS	area with substrate ENKYFQS	area with substrate ENHYFQS	area with substrate ENWYFQS	area with substrate ENTYFQS
MGESLFKGPRDYNPISSSICHLTNESDGHTTSLYGIGFGPFIITNKHLFRRNNGTLVVQSLHGVFKVKDTTTLQQHLVDGRDMIIIRMPKDFPPFPQKLKFREPQREERICLVTTNFQTKSMSSMVSDTSCTFPSGDGIFWKHWIQTKDGQCGSPLVSTRDGFIVGIHSASNFTNTNNYFTSVPKNFMELLTKQEAQQWVSGWRLNADSVLWGGHKVFMVKPEEPFQPVKEATQL [N193K]	0.0745						
MGESLFKGPRDYNPISSSICHLTNESDGHTTSLYGIGFGPFIITNKHLFRRNNGTLVVQSLHGVFKVKDTTTLQQHLVDGRDMIIIRMPKDFPPFPQKLKFREPQREERICLVTTNFQTKSMSSMVSDTSCTFPSGDGIFWKHWIQTKDGQCGSPLVSTRDGFIVGIHSASNFTNTNNDFTSVPKNFMELLTNQEAQQWVSGWRLNADSVLWGGHKVFMVKPEEPFQPVKEATQL [Y179D]		0.0265					
MGESLAKGPRDYNPISSSICHLTNESDGHTTSLYGIGFGPFIITNKHLFRRNNGTLVVQSLHGVFKVKDTTTLQQHLVDGRDMIIIRMPKDFPPFPQKLKFREPQREERICLVTTNFQTKSMSSMVSDTSCTFPSGDGIFWKHWIQTKDGQCGSPLVSTRDGFIVGIHSASNFTNTNNYFTSVPKNFMELLTNQEAQQWVSGWRLNADSVLWGGHKVFMVKPEEPFQPVKEATQL [F6A]	0.0723		0.0626	0.0598			
MGESLFKGPRDYNPISSSICHLTNESDGHTTSLYGIGFGPFIITNKHLFRRNNGTLVVQSLHGVFKVKDTTTLQQHLVDGRDMIIIRMPKDFPPFPQKLKFREPQREERICLVTTNFQTKSMSSMVSDTSCTFPSGDGIFWKHWIQTKDGQCGSPLVSTRDGFIVGIHSASNFTNTNNYFTSVPKNFMELLTNQEAQQWVSGWRLNADSVLWGFHKVFMVKPEEPFQPVKEATQL [G214F]			0.0643				
MSESLFKGPRDYNPISSSICHLTNESDGHTTSLYGIGFGPFIITNKHLFRRNNGTLVVQSLHGVFKVKDTTTLQQHLVDGRDMIIIRMPKDFPPFPQKLKFREPQREERICLVTTNFQTKSMSSMVSDTSCTFPSGDGIFWKHWIQTKDGQCGSPLVSTRDGFIVGIHSASNFTNTNNYFTSVPKNFMELLTNQEAQQWVSGWRLNADSVLWGGHKVFMVKPEEPFQPVKEATQL [G2S]	0.0485		0.0742				
MGESLFKGPRDYNPISSSICHLTNESDGHTTSLYGIGFGPFIITNKHLFRRNNGTLVVQSLHGVFKVKDTTTLQQHLVDGRDMIIIRMPKDFPPFPQKLKFREPQREERICLVTTNFQTKSMSSMVSDTSCTFPSGDGIFWKHWIQTKDGQCGSPLVSTRDGFIVGIHSASNFTNTNNYFTSVPKTFMELLTNQEAQQWVSGWRLNADSVLWGGHKVFMVKPEEPFQPVKEATQL [N186T]		0.0847	0.0655	0.0542	0.052	0.0589	
MGESLFKGPRDYNPISSSICHLTNESDGHTTSLYGIGFGPFIITNKHLFRRNNGTLVVQSLHGVFKVKDTTTLQQHLVDGRDMIIIRMPKDFPPFPQKLKFREPQREERICLVTTNFQTKSMSSMVSDTSCTFPSGDGIFWKHWIQTKDGQCGSPLVSTRDGFIVGIHSASNFTNTNNYFTSVPKNFMELLTNQEAQQWVSGWRLNADSVLWGGHKEFMVKPEEPFQPVKEATQL [V217E]	0.0554			0.0633		0.0596	
MGESLFKGPRDYNPISSSICHLTNESDGHTTSLYGIGFGPFIITNKHLFRRNNGTLVVQSLHGVFKVKDTTTLQQHLVDGRDMIIIRMPKDFPPFPQKLKFREPQREERICLVTTNFQTKSMSSMVSDTSCTFPSGDGIFWKHWIQTKDGQCGSPLVSTRDGFIVGIHSASNFTNTNNYFTSVPKNFMELLTNQEAQPWVSGWRLNADSVLWGGHKVFMVKPEEPFQPVKEATQL [Q198P]	0.0449	0.0639	0.0581		0.0895		0.0545
